Assay results from the GPR68 mutational scans of Howard et al. (2025).
Scores whose standard error is large were omitted. The source holds two more conditions with little spread; they are left out. Read del as a deletion of the residues named and ins as an insertion between two positions. For some of these results: The data file names ogerin without a concentration.

B1: GPR68, Q15743 (parent)
chain: MGNITADNSSMSCTIDHTIHQTLAPVVYVTVLVVGFPANCLSLYFGYLQIKARNELGVYLCNLTVADLFYICSLPFWLQYVLQHDNWSHGDLSCQVCGILLYENIYISVGFLCCISVDRYLAVAHPFRFHQFRTLKAAVGVSVVIWAKELLTSIYFLMHEEVIEDENQHRVCFEHYPIQAWQRAINYYRFLVGFLFPICLLLASYQGILRAVRRSHGTQKSRKDQIQRLVLSTVVIFLACFLPYHVLLLVRSVWEASCDFAKGVFNAYHFSLLLTSFNCVADPVLYCFVSETTHRDLARLRGACLAFLTCSRTGRAREAYPLGAPEASGKSGAQGEEPELLTKLHPAFQTPNSPGSGGFPTGRLA

Legend:
[1] = variants of: B1; assay: cAMP reporter score (Enrich2 score, wild type = 0); higher = more signal; HEK293T, FACS bins
[2] = variants of: B1; assay: surface expression score (Enrich2 score, wild type = 0); higher = more signal; HEK293T, FACS bins

| Variant | cAMP reporter score ([1]; pH 5.5) | cAMP reporter score ([1]; pH 6) | cAMP reporter score ([1]; pH 6, modulator: ogerin) | cAMP reporter score ([1]; pH 6.5, modulator: ogerin) | surface expression score [2] |
| --- | --- | --- | --- | --- | --- |
| V284L | -0.668 | -0.91 | -0.683 | -1.39 | -0.564 |
| V284Q | -1.93 | – | -1.51 | -2.08 | -2.45 |
| V284I | 1.23 | 1.18 | 2.4 | 0.382 | 1.59 |
| V284C | 0.639 | 0.489 | 0.307 | 0.588 | 0.024 |
| V284S | -1.1 | -0.585 | -1.13 | -1.14 | -1.58 |
| V284K | -1.66 | -1.09 | -1.92 | -1.56 | -1.97 |
| V284E | -0.9 | -1.21 | -1.85 | -1.43 | -2.6 |
| V284D | -1.98 | -1.16 | -0.309 | -0.889 | -1.99 |
| V284T | -0.765 | -0.544 | -0.895 | -1.35 | -1.33 |
| V284H | -1.19 | – | -1.01 | -1.83 | -1.61 |
| V284G | -0.963 | -0.876 | -1.84 | -0.869 | -1.24 |
| V284F | 1.23 | 2.22 | 0.503 | 2.04 | 0.851 |
| V284M | -0.085 | -0.676 | -0.116 | -0.297 | -0.268 |
| V284N | -1.2 | -0.868 | -1.18 | -1 | -2.47 |
| V284W | -0.121 | 0.235 | 0.095 | 0.372 | 0.662 |
| V284Y | 1.24 | 0.001 | 1.03 | 0.259 | -1.4 |

| Variant | cAMP reporter score ([1]; pH 5.5) | cAMP reporter score ([1]; pH 6) | cAMP reporter score ([1]; pH 6, modulator: ogerin) | cAMP reporter score ([1]; pH 6.5, modulator: ogerin) | surface expression score [2] |
| --- | --- | --- | --- | --- | --- |
| S290_E291del | -1.68 | -0.791 | -0.985 | -0.985 | -0.09 |
| D296del | -0.749 | -0.072 | -1.12 | 0.749 | -0.367 |
| C287_F288insGS | -1.32 | – | -1.24 | -1.49 | -1.7 |
| F288_S290del | -1.15 | -1.22 | -1 | -0.296 | -2.85 |
| R295_L297del | -0.129 | – | -0.236 | 0.341 | -1.04 |
| E291_T292insGSG | -1.6 | 0.427 | -0.921 | -0.171 | 0.391 |
| R295del | -1.07 | -1.1 | -0.816 | -1.21 | 0.493 |
| P283_L285del | -1.4 | -1.46 | -1.74 | -1.29 | -2.18 |
| R295N | 0.958 | -0.003 | 1.03 | 0.395 | 0.955 |
| R295G | -0.435 | -0.211 | -0.527 | -1.15 | 0.597 |
| R295E | 0.367 | 0.38 | 1.38 | 1.18 | 1.5 |
| R295W | -0.196 | -0.885 | -1.11 | -1.17 | 0.75 |
| R295A | 0.572 | -0.841 | 0.506 | -0.103 | 1.42 |
| R295C | 0.647 | -0.593 | 0.081 | -0.762 | 1.31 |
| R295Y | 0.471 | -0.479 | -0.22 | -0.409 | 0.653 |
